Measurements reported in the supplement of paper PMC12217912.
Some of the results follow. Sequences were assembled here from the parent chain. Inactive controls read about 0.05.

B1: TEV protease; numbered along this chain (parent)
chain: MGESLFKGPRDYNPISSSICHLTNESDGHTTSLYGIGFGPFIITNKHLFRRNNGTLVVQSLHGVFKVKDTTTLQQHLVDGRDMIIIRMPKDFPPFPQKLKFREPQREERICLVTTNFQTKSMSSMVSDTSCTFPSGDGIFWKHWIQTKDGQCGSPLVSTRDGFIVGIHSASNFTNTNNYFTSVPKNFMELLTNQEAQQWVSGWRLNADSVLWGGHKVFMVKPEEPFQPVKEATQL

Variants of: B1
Experiment: raw area under fraction-flipped curve 0-4 h after induction (AUC4h, not background-subtracted), DNA-recorder readout of cleavage of the substrate (dimensionless); higher = more cleavage of the substrate by the protease variant
Settings: temperature: 34 °C; time window: 0-4 h after rhamnose induction
Method: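 In vivo DNA recorder in E. coli TOP10(DE3) ΔrhaA at 34 °C. Each TEVp single-site mutant (parent TEVp 0) is paired with a single-site variant of the 7-mer TEVs (canonical ENLYFQ|S). The substrate sits between flexible linkers in a Bxb1-sfGFP-TEVs-SsrA fusion, so cleavage stabilises Bxb1 and speeds flipping of a recombination array, read by NGS. The value is the raw area under the fraction-flipped curve over 0-4 h after rhamnose induction (AUC4h), with ≥20 reads per time point. It is not background-subtracted; inactive controls average about 0.047.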
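Note: Bxb1 expression induced with 0.2% (w/v) L-rhamnose at OD600 near 0.5, cultures sampled hourly, flipped fraction per protease–substrate barcode pair counted by paired-end Illumina sequencing.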

Row | Variant | area with substrate ENAYFQS | area with substrate ENCYFQS | area with substrate ENDYFQS | area with substrate ENEYFQS | area with substrate ENFYFQS | area with substrate ENGYFQS | area with substrate ENHYFQS | area with substrate ENKYFQS | area with substrate ENMYFQS | area with substrate ENNYFQS | area with substrate ENPYFQS | area with substrate ENQYFQS | area with substrate ENRYFQS | area with substrate ENSYFQS | area with substrate ENTYFQS | area with substrate ENVYFQS | area with substrate ENWYFQS | area with substrate ENIYFQS | area with substrate ENYYFQS
1 | MGESLFKGPRDYNPESSSICHLTNESDGHTTSLYGIGFGPFIITNKHLFRRNNGTLVVQSLHGVFKVKDTTTLQQHLVDGRDMIIIRMPKDFPPFPQKLKFREPQREERICLVTTNFQTKSMSSMVSDTSCTFPSGDGIFWKHWIQTKDGQCGSPLVSTRDGFIVGIHSASNFTNTNNYFTSVPKNFMELLTNQEAQQWVSGWRLNADSVLWGGHKVFMVKPEEPFQPVKEATQL [I15E] | 0.0625 | 0.0543 | 0.0567 | 0.0528 | 0.0551 | 0.0659 | 0.0661 | 0.0519 | 0.0555 | 0.0757 | 0.0577 | 0.0404 | 0.0593 | 0.0569 | 0.0595 | 0.0615 | 0.0435 |  | 
2 | MGESLFKGPRDYNPQSSSICHLTNESDGHTTSLYGIGFGPFIITNKHLFRRNNGTLVVQSLHGVFKVKDTTTLQQHLVDGRDMIIIRMPKDFPPFPQKLKFREPQREERICLVTTNFQTKSMSSMVSDTSCTFPSGDGIFWKHWIQTKDGQCGSPLVSTRDGFIVGIHSASNFTNTNNYFTSVPKNFMELLTNQEAQQWVSGWRLNADSVLWGGHKVFMVKPEEPFQPVKEATQL [I15Q] | 0.0686 | 0.0852 | 0.0704 |  | 0.0532 |  | 0.0713 | 0.0622 | 0.0589 | 0.0617 | 0.0716 | 0.0488 | 0.0569 | 0.066 | 0.055 | 0.0687 |  | 0.112 | 0.0539
3 | MGESLFKGPRDYNPISASICHLTNESDGHTTSLYGIGFGPFIITNKHLFRRNNGTLVVQSLHGVFKVKDTTTLQQHLVDGRDMIIIRMPKDFPPFPQKLKFREPQREERICLVTTNFQTKSMSSMVSDTSCTFPSGDGIFWKHWIQTKDGQCGSPLVSTRDGFIVGIHSASNFTNTNNYFTSVPKNFMELLTNQEAQQWVSGWRLNADSVLWGGHKVFMVKPEEPFQPVKEATQL [S17A] | 0.0441 |  | 0.0544 | 0.0529 | 0.0688 | 0.075 | 0.051 |  | 0.0878 | 0.0508 | 0.0117 | 0.0628 |  |  | 0.0593 |  | 0.0535 |  | 0.0575
4 | MGESLFKGPRDYNPISSAICHLTNESDGHTTSLYGIGFGPFIITNKHLFRRNNGTLVVQSLHGVFKVKDTTTLQQHLVDGRDMIIIRMPKDFPPFPQKLKFREPQREERICLVTTNFQTKSMSSMVSDTSCTFPSGDGIFWKHWIQTKDGQCGSPLVSTRDGFIVGIHSASNFTNTNNYFTSVPKNFMELLTNQEAQQWVSGWRLNADSVLWGGHKVFMVKPEEPFQPVKEATQL [S18A] | 0.064 |  | 0.0769 | 0.0669 | 0.0564 |  | 0.06 |  |  | 0.058 | 0.0655 | 0.0558 | 0.0565 | 0.0479 | 0.0475 | 0.0935 |  |  | 0.047
5 | MGESLFKGPRDYNPISSSKCHLTNESDGHTTSLYGIGFGPFIITNKHLFRRNNGTLVVQSLHGVFKVKDTTTLQQHLVDGRDMIIIRMPKDFPPFPQKLKFREPQREERICLVTTNFQTKSMSSMVSDTSCTFPSGDGIFWKHWIQTKDGQCGSPLVSTRDGFIVGIHSASNFTNTNNYFTSVPKNFMELLTNQEAQQWVSGWRLNADSVLWGGHKVFMVKPEEPFQPVKEATQL [I19K] | 0.0543 | 0.0425 | 0.034 | 0.0541 |  |  | 0.0563 | 0.0624 |  | 0.0355 | 0.0488 | 0.0519 | 0.0489 | 0.0409 | 0.0491 |  |  | 0.0544 | 
6 | MGESLFKGPRDYNPISSSPCHLTNESDGHTTSLYGIGFGPFIITNKHLFRRNNGTLVVQSLHGVFKVKDTTTLQQHLVDGRDMIIIRMPKDFPPFPQKLKFREPQREERICLVTTNFQTKSMSSMVSDTSCTFPSGDGIFWKHWIQTKDGQCGSPLVSTRDGFIVGIHSASNFTNTNNYFTSVPKNFMELLTNQEAQQWVSGWRLNADSVLWGGHKVFMVKPEEPFQPVKEATQL [I19P] | 0.0442 | 0.0426 | 0.0442 | 0.0514 | 0.047 | 0.0409 | 0.0402 | 0.0319 | 0.0461 | 0.0384 | 0.0343 | 0.0481 | 0.0476 | 0.0465 | 0.0569 | 0.054 | 0.0301 |  | 0.0437
7 | MGESLFKGPRDYNPISSSVCHLTNESDGHTTSLYGIGFGPFIITNKHLFRRNNGTLVVQSLHGVFKVKDTTTLQQHLVDGRDMIIIRMPKDFPPFPQKLKFREPQREERICLVTTNFQTKSMSSMVSDTSCTFPSGDGIFWKHWIQTKDGQCGSPLVSTRDGFIVGIHSASNFTNTNNYFTSVPKNFMELLTNQEAQQWVSGWRLNADSVLWGGHKVFMVKPEEPFQPVKEATQL [I19V] | 0.0617 |  | 0.0603 | 0.0607 | 0.06 |  | 0.0509 |  |  |  | 0.051 | 0.0594 |  | 0.0706 | 0.0613 | 0.0846 |  | 0.12 | 0.0581
8 | MGESLFKGPRDYNPISSSYCHLTNESDGHTTSLYGIGFGPFIITNKHLFRRNNGTLVVQSLHGVFKVKDTTTLQQHLVDGRDMIIIRMPKDFPPFPQKLKFREPQREERICLVTTNFQTKSMSSMVSDTSCTFPSGDGIFWKHWIQTKDGQCGSPLVSTRDGFIVGIHSASNFTNTNNYFTSVPKNFMELLTNQEAQQWVSGWRLNADSVLWGGHKVFMVKPEEPFQPVKEATQL [I19Y] | 0.0494 | 0.068 | 0.0628 | 0.0592 | 0.0459 | 0.0417 | 0.0533 | 0.0617 | 0.0517 |  | 0.0581 | 0.0606 | 0.0473 | 0.0539 | 0.0428 | 0.0613 | 0.0432 |  | 0.0456
9 | MGESLFKGPRDYNPISSSINHLTNESDGHTTSLYGIGFGPFIITNKHLFRRNNGTLVVQSLHGVFKVKDTTTLQQHLVDGRDMIIIRMPKDFPPFPQKLKFREPQREERICLVTTNFQTKSMSSMVSDTSCTFPSGDGIFWKHWIQTKDGQCGSPLVSTRDGFIVGIHSASNFTNTNNYFTSVPKNFMELLTNQEAQQWVSGWRLNADSVLWGGHKVFMVKPEEPFQPVKEATQL [C20N] | 0.0443 | 0.0448 | 0.0451 | 0.0505 | 0.0463 | 0.0496 | 0.0416 | 0.0524 | 0.0727 | 0.0539 | 0.0569 | 0.049 | 0.0144 | 0.0453 | 0.0608 | 0.0427 |  | 0.0646 | 0.0398
